# Data: publication PMC8591507, “Progesterone receptor membrane component 1 (PGRMC1) binds and stabilizes cytochromes P450 through a heme-independent mechanism” (The Journal of Biological Chemistry, 2021)
# Sequences of proteins named here, by UniProt entry; tags and fusion partners are left off. A change or cut given only in a name is not applied to a line headed by its entry.
# UniProt O55022: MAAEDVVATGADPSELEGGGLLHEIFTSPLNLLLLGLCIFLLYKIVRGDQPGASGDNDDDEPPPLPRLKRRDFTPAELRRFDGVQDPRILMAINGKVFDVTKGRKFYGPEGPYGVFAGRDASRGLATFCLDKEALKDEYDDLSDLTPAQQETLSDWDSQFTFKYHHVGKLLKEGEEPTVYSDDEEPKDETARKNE
# UniProt O00264: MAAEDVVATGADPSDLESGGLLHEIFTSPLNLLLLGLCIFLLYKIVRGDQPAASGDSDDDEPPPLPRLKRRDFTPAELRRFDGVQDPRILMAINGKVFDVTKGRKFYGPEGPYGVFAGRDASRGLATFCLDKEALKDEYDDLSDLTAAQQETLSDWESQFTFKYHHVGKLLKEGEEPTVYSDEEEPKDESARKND
# UniProt Q05421: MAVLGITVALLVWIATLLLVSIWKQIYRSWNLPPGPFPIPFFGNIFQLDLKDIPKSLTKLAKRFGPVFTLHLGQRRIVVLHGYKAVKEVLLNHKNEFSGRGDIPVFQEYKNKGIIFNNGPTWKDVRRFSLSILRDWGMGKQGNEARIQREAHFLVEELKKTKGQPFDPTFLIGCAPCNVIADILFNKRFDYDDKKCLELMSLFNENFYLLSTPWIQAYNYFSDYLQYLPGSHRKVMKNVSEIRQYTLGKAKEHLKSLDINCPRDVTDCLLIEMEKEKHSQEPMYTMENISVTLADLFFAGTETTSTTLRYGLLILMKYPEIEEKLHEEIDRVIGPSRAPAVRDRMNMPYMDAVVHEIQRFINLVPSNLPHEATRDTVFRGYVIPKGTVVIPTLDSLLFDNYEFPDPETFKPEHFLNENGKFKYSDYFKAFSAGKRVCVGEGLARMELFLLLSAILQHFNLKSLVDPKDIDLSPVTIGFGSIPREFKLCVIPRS
# Results are given in words; binding and its absence hold for the method and conditions named. Binding seen in cells or lysates may run through a third protein. Some entries that bind do so weakly or less than the wild type. For some assays here: Where a sequence is shown, tags or fusion partners need not be part of it.
# B1: Cyp1a2 (enzyme, UniProt P00186 1-513)
# chain: MAFSQYISLAPELLLATAIFCLVFWMVRASRTQVPKGLKNPPGPWGLPFIGHMLTVGKNPHLSLTRLSQQYGDVLQIRIGSTPVVVLSGLNTIKQALVRQGDDFKGRPDLYSFTLITNGKSMTFNPDSGPVWAARRRLAQDALKSFSIASDPTSASSCYLEEHVSKEANHLVSKLQKAMAEVGHFEPVSQVVESVANVIGAMCFGKNFPRKSEEMLNIVNNSKDFVENVTSGNAVDFFPVLRYLPNPALKRFKTFNDNFVLFLQKTVQEHYQDFNKNSIQDITSALFKHSENYKDNGGLIPEEKIVNIVNDIFGAGFDTVTTAITWSILLLVTWPNVQRKIHEELDTVVGRDRQPRLSDRPQLPYLEAFILEIYRYTSFVPFTIPHSTTRDTSLNGFHIPKERCIYINQWQVNHDEKQWKDPFVFRPERFLTNNNSAIDKTQSEKVMLFGLGKRRCIGEIPAKWEVFLFLAILLQHLEFSVPPGVKVDLTPNYGLTMKPGTCEHVQAWPRFSK
# B2: Cyp51a (enzyme, UniProt Q8K0C4 1-503)
# chain: MVLLGLLQSGGWVLGQAMEQVTGGNLLSTLLIACAFTLSLVYLFRLAVGHMVQLPAGAKSPPHIYSPIPFLGHAIAFGKSPIEFLENAYEKYGPVFSFTMVGKTFTYLLGSDAAALLFNSKNEDLNAEEVYGRLTTPVFGKGVAYDVPNAIFLEQKKIIKSGLNIAHFKQYVPIIEKEAKEYFQSWGESGERNVFEALSELIILTASHCLHGKEIRSQLNEKVAQLYADLDGGFTHAAWLLPAWLPLPSFRRRDRAHREIKNIFYKAIQKRRLSKEPAEDILQTLLDSTYKDGRPLTDEEISGMLIGLLLAGQHTSSTTSAWMGFFLAKDKPLQEKCYLEQKAVCGEDLPPLTYDQLKDLNLLDRCIKETLRLRPPIMTMMRMAKTPQTVAGYTIPPGHQVCVSPTVNQRLKDSWAERLDFNPDRYLQDNPASGEKFAYVPFGAGRHRCVGENFAYVQIKTIWSTMLRLYEFDLINGYFPTVNYTTMIHTPENPVIRYKRRSK
# B3: ferrochelatase (Fech) (enzyme, UniProt P22315 54-422)
# chain: TTKPQAQPERRKPKTGILMLNMGGPETLGEVQDFLQRLFLDRDLMTLPIQNKLAPFIAKRRTPKIQEQYRRIGGGSPIKMWTSKQGEGMVKLLDELSPATAPHKYYIGFRYVHPLTEEAIEEMERDGLERAIAFTQYPQYSCSTTGSSLNAIYRYYNEVGQKPTMKWSTIDRWPTHPLLIQCFADHILKELNHFPEEKRSEVVILFSAHSLPMSVVNRGDPYPQEVGATVHKVMEKLGYPNPYRLVWQSKVGPVPWLGPQTDEAIKGLCERGRKNILLVPIAFTSDHIETLYELDIEYSQVLAQKCGAENIRRAESLNGNPLFSKALADLVHSHIQSNKLCSTQLSLNCPLCVNPVCRKTKSFFTSQQL
# B4: CYP1A2-1XMyc (human cytochrome P450 1A2) (enzyme, UniProt P05177 1-516)
# chain: MALSQSVPFSATELLLASAIFCLVFWVLKGLRPRVPKGLKSPPEPWGWPLLGHVLTLGKNPHLALSRMSQRYGDVLQIRIGSTPVLVLSRLDTIRQALVRQGDDFKGRPDLYTSTLITDGQSLTFSTDSGPVWAARRRLAQNALNTFSIASDPASSSSCYLEEHVSKEAKALISRLQELMAGPGHFDPYNQVVVSVANVIGAMCFGQHFPESSDEMLSLVKNTHEFVETASSGNPLDFFPILRYLPNPALQRFKAFNQRFLWFLQKTVQEHYQDFDKNSVRDITGALFKHSKKGPRASGNLIPQEKIVNLVNDIFGAGFDTVTTAISWSLMYLVTKPEIQRKIQKELDTVIGRERRPRLSDRPQLPYLEAFILETFRHSPFLPFTIPHSTTRDTTLNGFYIPKKCCVFVNQWQVNHDPELWEDPSEFRPERFLTADGTAINKPLSEKMMLFGMGKRRCIGEVLAKWEIFLFLAILLQQLEFSVPPGVKVDLTPIYGLTMKHARCEHVQARLRFSIN
# Tests used:
# [1] = target: Flag-Pgrmc1 (murine progesterone receptor membrane component 1) (mouse) (UniProt O55022); test: co-IP; Flag-M2 agarose on DDM-solubilized liver membrane fractions of Pgrmc1 KO mice infected with AAV8 GFP, Flag-Pgrmc1 or Y113F Flag-Pgrmc1; 1 h at 4 °C; input (1x) and bound (20x) fractions western blotted
# [2] = target: Y113F Flag-Pgrmc1 (murine) (mouse) (UniProt O55022); test: as above
# [3] = target: Y113F Flag-PGRMC1 (human) (human) (UniProt O00264); test: co-IP; Flag-M2 agarose on lysates (1X TAP lysis buffer with DDM) of PGRMC1 KO SV589 cells cotransfected with Flag-PGRMC1 variants and CYP1A2-1XMyc; 1 h at 4 °C; western blot
# [4] = target: Y113F, K163A, Y164F (3X MUT) Flag-PGRMC1 (human) (human) (UniProt O00264); test: as above
# [5] = target: Flag-PGRMC1 (human progesterone receptor membrane component 1) (human) (UniProt O00264); test: as above
Molecule,binding [1],binding [2],binding [3],binding [4],binding [5]
Cyp2e1 (from UniProt Q05421 1-493) (enzyme),binds,binds,,,
B1,binds,binds,,,
B2,binds,binds,,,
B3,binds,no binding,,,
B4,,,binds,binds,binds
